Data as given in the BET-seq Pho4 binding data (Le et al. 2018).
Some of the results follow. The energies were worked out here from pooled read counts, against the library average; single values are noisy.

Target: T1, Pho4 (S. cerevisiae) (UniProt P07270)
T1 sequence: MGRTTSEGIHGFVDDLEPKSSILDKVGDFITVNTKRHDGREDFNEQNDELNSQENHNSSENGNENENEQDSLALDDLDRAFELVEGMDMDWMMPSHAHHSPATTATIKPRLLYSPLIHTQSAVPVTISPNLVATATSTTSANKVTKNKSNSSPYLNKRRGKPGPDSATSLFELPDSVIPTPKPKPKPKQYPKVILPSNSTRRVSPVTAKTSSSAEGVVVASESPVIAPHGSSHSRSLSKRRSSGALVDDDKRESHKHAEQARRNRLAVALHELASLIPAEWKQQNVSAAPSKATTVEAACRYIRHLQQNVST
Experiment: relative binding free energy (BET-seq); higher = weaker binding
Settings: reference: library average

Row | Sequence | relative binding free energy
1 | TAGAACACGTGGCGGG | -0.18 kcal/mol
2 | TAAGTCACGTGGCGTT | 0.13 kcal/mol
3 | GGCTACACGTGTTGTA | 0.27 kcal/mol
4 | TTAAGCACGTGAGTTG | 0.19 kcal/mol
5 | CTTAGCACGTGGGTGG | -0.17 kcal/mol
6 | GATTGCACGTGTGGGA | 0.21 kcal/mol
7 | TGGTTCACGTGATCGC | 0.53 kcal/mol
8 | TCCGTCACGTGAGGTT | 0.28 kcal/mol
9 | CGGGACACGTGTGCGT | -0.12 kcal/mol
10 | TGGTTCACGTGTTTGA | 0.23 kcal/mol
11 | CGCTGCACGTGTGGGG | 0.02 kcal/mol
12 | CTTGGCACGTGGCGGA | -0.28 kcal/mol
13 | ATTATCACGTGTTATC | 0.19 kcal/mol
14 | ATGAGCACGTGGGGGT | -0.14 kcal/mol
15 | TACATCACGTGAGTTG | 0.39 kcal/mol
16 | GGTACCACGTGTGTGT | 0 kcal/mol
17 | GTGACCACGTGGGGCG | -0.2 kcal/mol
18 | TTCGCCACGTGTTGTT | -0.14 kcal/mol
19 | ATTGACACGTGGGTAG | -0.26 kcal/mol
20 | GAGTGCACGTGTTACT | 0.12 kcal/mol
21 | GGAAGCACGTGGCTAG | -0.06 kcal/mol
22 | TTTGTCACGTGTTAGC | 0.09 kcal/mol
23 | TAATTCACGTGTTCAT | 0.13 kcal/mol
24 | CTGTTCACGTGATTTT | 0.35 kcal/mol
25 | CGTGACACGTGTGTGA | -0.04 kcal/mol

Row | Sequence | relative binding free energy
26 | AAATGCACGTGTAGTA | -0.01 kcal/mol
27 | TTTGGCACGTGGGTTT | -0.08 kcal/mol
28 | GATTACACGTGCGGTT | 0.15 kcal/mol
29 | TGGTTCACGTGCTGTT | 0.2 kcal/mol
30 | ATGGTCACGTGCCTTG | -0.02 kcal/mol
31 | ATCCGCACGTGGGGGG | -0.38 kcal/mol
32 | AGGTCCACGTGTGTGT | 0.08 kcal/mol
33 | TTCTGCACGTGTGGTG | 0.06 kcal/mol
34 | ATTACCACGTGTAGGG | -0.05 kcal/mol
35 | GTCGGCACGTGTGGCA | -0.02 kcal/mol
36 | GCTAGCACGTGGTCGG | -0.23 kcal/mol
37 | GTGTTCACGTGTGTTC | 0.38 kcal/mol
38 | GTAGGCACGTGTTTCG | -0.14 kcal/mol
39 | CTGTACACGTGGCTGG | -0.06 kcal/mol
40 | TCAATCACGTGGAGTT | 0.15 kcal/mol
41 | TCTCGCACGTGGTGGG | -0.22 kcal/mol
42 | CGTCTCACGTGGTAGG | 0.07 kcal/mol
43 | AGTGGCACGTGTGGTT | -0.03 kcal/mol
44 | CGTTTCACGTGTGGGG | 0.32 kcal/mol
45 | TGTGACACGTGGTGTA | -0.06 kcal/mol
46 | GTGGTCACGTGAATAT | 0.26 kcal/mol
47 | ATGTACACGTGGTGTA | -0.01 kcal/mol
48 | GTTGTCACGTGGCCGG | 0.05 kcal/mol
49 | AGATACACGTGATGTT | 0.15 kcal/mol
50 | GATTTCACGTGTGAAT | 0.25 kcal/mol

Row | Sequence | relative binding free energy
51 | AAAGACACGTGGTGTT | 0.03 kcal/mol
52 | TATTCCACGTGTTTTT | 0.11 kcal/mol
53 | AGTATCACGTGTCAGT | 0.07 kcal/mol
54 | TAGGGCACGTGTGCAG | -0.23 kcal/mol
55 | GATTTCACGTGCGTGG | 0.24 kcal/mol
56 | GGTGTCACGTGGTTTC | 0.11 kcal/mol
57 | ATTTCCACGTGTGTGA | 0.13 kcal/mol
58 | TGATTCACGTGAGGTC | 0.31 kcal/mol
59 | GTGTCCACGTGTAGTG | 0.1 kcal/mol
60 | TGCTTCACGTGGAAGT | 0.33 kcal/mol
61 | GCTGCCACGTGATGTG | 0.24 kcal/mol
62 | AGGTGCACGTGTAATT | 0.11 kcal/mol
63 | AGTGTCACGTGGTTGA | 0.01 kcal/mol
64 | AGGTGCACGTGGGGAG | -0.21 kcal/mol
65 | TGATACACGTGGGAAT | -0.05 kcal/mol
66 | GGTGACACGTGTTGTA | 0 kcal/mol
67 | TTGCGCACGTGGTGGG | -0.19 kcal/mol
68 | GTCTACACGTGTGCTG | 0.27 kcal/mol
69 | GAATACACGTGTGGCG | 0.24 kcal/mol
70 | GTGAACACGTGTTGCT | 0.04 kcal/mol
71 | TTGGCCACGTGTGATG | -0.01 kcal/mol
72 | ATTCACACGTGTGAGG | 0.12 kcal/mol
73 | ATTATCACGTGGTAGA | 0.1 kcal/mol
74 | TGCATCACGTGATAGG | 0.08 kcal/mol
75 | ATAGTCACGTGTATGC | 0.13 kcal/mol

Row | Sequence | relative binding free energy
76 | TGTTGCACGTGTGCGA | 0.12 kcal/mol
77 | TAATTCACGTGTAAAG | 0.36 kcal/mol
78 | CGGGCCACGTGTTGTT | -0.02 kcal/mol
79 | CGTCGCACGTGGTGGG | -0.18 kcal/mol
80 | TGGCTCACGTGGTTGC | 0.13 kcal/mol
81 | TACATCACGTGTTATG | 0.11 kcal/mol
82 | CTTGCCACGTGGGAGG | -0.17 kcal/mol
83 | GTTGTCACGTGCTTTG | 0.15 kcal/mol
84 | ATAAACACGTGGAGGT | 0.06 kcal/mol
85 | TTAGGCACGTGTCCTG | -0.17 kcal/mol
86 | GTTTACACGTGTTATA | 0.18 kcal/mol
87 | TATAGCACGTGTACGT | 0.02 kcal/mol
88 | TTGATCACGTGGTTGA | 0.13 kcal/mol
89 | TGGGGCACGTGCGGAA | -0.19 kcal/mol
90 | TATTTCACGTGTTTGA | 0.22 kcal/mol
91 | TATCGCACGTGTACGG | 0.05 kcal/mol
92 | CGGAGCACGTGTTAGG | -0.12 kcal/mol
93 | AGGATCACGTGGGACT | 0.15 kcal/mol
94 | GGAGTCACGTGGCTTA | 0.21 kcal/mol
95 | TGGATCACGTGGAGTC | 0.23 kcal/mol
96 | TTCTTCACGTGAGAGG | 0.61 kcal/mol
97 | TAACGCACGTGAAGGG | 0.21 kcal/mol
98 | TTGGGCACGTGCTATA | -0.16 kcal/mol
99 | GTGCTCACGTGAGAGT | 0.19 kcal/mol
100 | GGGAGCACGTGGCATG | -0.31 kcal/mol

Row | Sequence | relative binding free energy
101 | GTAATCACGTGAAGGT | 0.32 kcal/mol
102 | AAAGTCACGTGTAGGG | 0.07 kcal/mol
103 | TGGGCCACGTGTTGTA | 0.01 kcal/mol
104 | CTTGACACGTGGGTCG | -0.05 kcal/mol
105 | GAGCGCACGTGCTGTG | -0.01 kcal/mol
106 | CAATTCACGTGGAGTG | 0.26 kcal/mol
107 | ATGATCACGTGACGGT | 0.33 kcal/mol
108 | GGAGGCACGTGCGGTC | -0.17 kcal/mol
109 | TGGTGCACGTGCGGAT | 0.01 kcal/mol
110 | GAGTGCACGTGGTCGA | -0.06 kcal/mol
111 | ATGGGCACGTGTCCGT | -0.02 kcal/mol
112 | AGCGACACGTGGGTGA | -0.2 kcal/mol
113 | ATAAGCACGTGAAGTG | 0.18 kcal/mol
114 | TTTAACACGTGAGGTT | 0.17 kcal/mol
115 | GTGTGCACGTGATTGC | -0.11 kcal/mol
116 | TGGAGCACGTGTTTGT | 0.02 kcal/mol
117 | AGGAGCACGTGTAGGT | -0.05 kcal/mol
118 | AGTATCACGTGGATAA | 0.17 kcal/mol
119 | GGCAGCACGTGGTGGG | -0.06 kcal/mol
120 | TCATTCACGTGGGTTA | 0.09 kcal/mol
121 | TGAAACACGTGAGTGG | 0.3 kcal/mol
122 | GGCGTCACGTGGGTTA | 0.04 kcal/mol
123 | TGGTACACGTGGTCTG | -0.07 kcal/mol
124 | TGAGTCACGTGTGGAA | 0.2 kcal/mol
125 | GGTCTCACGTGGTCTG | 0.17 kcal/mol

Row | Sequence | relative binding free energy
126 | TAATGCACGTGGGGTC | -0.27 kcal/mol
127 | AACGTCACGTGGATTG | 0.17 kcal/mol
128 | TGGTCCACGTGATTAG | 0.09 kcal/mol
129 | GGAGCCACGTGGTGTG | -0.1 kcal/mol
130 | CGTGTCACGTGCTTTA | 0 kcal/mol
131 | TAGAGCACGTGTAGAG | -0.1 kcal/mol
132 | TAGCTCACGTGGGATG | 0.15 kcal/mol
133 | TAGGCCACGTGAGTGG | 0.13 kcal/mol
134 | TATTTCACGTGGCGGT | 0.29 kcal/mol
135 | GTTCGCACGTGGATTA | 0.2 kcal/mol
136 | AGGATCACGTGTTGGC | 0.25 kcal/mol
137 | TGTGGCACGTGGAATT | 0.06 kcal/mol
138 | ATGGTCACGTGCGGAG | 0.04 kcal/mol
139 | GTAAGCACGTGCGGGA | -0.08 kcal/mol
140 | GGAATCACGTGATAGT | 0.22 kcal/mol
141 | AACAGCACGTGTGTGT | -0.2 kcal/mol
142 | AGGAGCACGTGTTGCG | -0.06 kcal/mol
143 | TAAGTCACGTGGTGCA | -0.04 kcal/mol
144 | ATGGTCACGTGGTAAG | 0.08 kcal/mol
145 | CTGGTCACGTGGAGCG | 0.03 kcal/mol
146 | GTCTGCACGTGACTGG | 0.36 kcal/mol
